Laboratory results reported in the supplement of paper PMC12067093, “Discovery and optimisation of a covalent ligand for TRIM25 and its application to targeted protein ubiquitination” (Chemical Science, 2025).
Targets with the largest changes are over-represented here; the source holds about 21,000 in all.

Compound: Cc1cc(ccc1-c1ccccc1)C(=O)N1CCCN(CC1)C(=O)CCl [compound 10]
Test: probe-labelled cysteine peptide fold change vs DMSO (competition) (log2 fold change); higher = less target engagement (more negative = stronger competition)
Settings: THP-1, incubation time: 4 h
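Note: competitive profiling in live THP-1 cells: cysteine peptides tagged with an iodoacetamide desthiobiotin (IA-DTB) probe, intensity after compound treatment relative to DMSO-treated cells.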

Chain of UniProt P12955 (P12955 whole entry, looked up): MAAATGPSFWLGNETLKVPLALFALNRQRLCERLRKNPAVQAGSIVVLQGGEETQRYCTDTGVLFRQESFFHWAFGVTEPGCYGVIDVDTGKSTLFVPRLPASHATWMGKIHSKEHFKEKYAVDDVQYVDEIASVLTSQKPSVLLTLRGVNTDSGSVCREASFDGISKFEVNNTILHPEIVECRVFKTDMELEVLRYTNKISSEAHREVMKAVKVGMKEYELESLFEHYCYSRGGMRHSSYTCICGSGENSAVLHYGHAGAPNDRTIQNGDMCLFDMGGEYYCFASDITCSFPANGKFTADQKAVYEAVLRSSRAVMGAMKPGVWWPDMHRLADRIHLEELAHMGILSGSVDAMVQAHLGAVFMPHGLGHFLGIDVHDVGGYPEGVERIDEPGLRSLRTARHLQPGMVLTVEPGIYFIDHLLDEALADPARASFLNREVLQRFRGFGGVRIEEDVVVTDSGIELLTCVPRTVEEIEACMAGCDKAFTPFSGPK
Chain of UniProt O75928 (O75928 whole entry, looked up): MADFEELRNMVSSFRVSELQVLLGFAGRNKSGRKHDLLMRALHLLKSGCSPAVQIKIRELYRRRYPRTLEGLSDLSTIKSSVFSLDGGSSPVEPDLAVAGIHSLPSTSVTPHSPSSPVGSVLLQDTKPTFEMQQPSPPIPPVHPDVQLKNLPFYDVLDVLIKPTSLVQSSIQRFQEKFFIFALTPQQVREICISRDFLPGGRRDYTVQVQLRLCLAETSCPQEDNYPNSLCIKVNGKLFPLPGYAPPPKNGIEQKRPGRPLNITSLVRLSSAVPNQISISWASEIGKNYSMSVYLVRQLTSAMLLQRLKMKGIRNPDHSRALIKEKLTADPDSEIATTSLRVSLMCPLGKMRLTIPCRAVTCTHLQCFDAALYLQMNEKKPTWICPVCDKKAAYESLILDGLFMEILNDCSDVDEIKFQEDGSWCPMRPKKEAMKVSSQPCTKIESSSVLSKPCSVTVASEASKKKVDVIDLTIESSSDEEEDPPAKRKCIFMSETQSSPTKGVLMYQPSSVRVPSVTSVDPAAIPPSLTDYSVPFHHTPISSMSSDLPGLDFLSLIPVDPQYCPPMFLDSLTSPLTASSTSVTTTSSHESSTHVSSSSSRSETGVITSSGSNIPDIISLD
Chain of UniProt Q9H9Y6 (Q9H9Y6 whole entry, looked up): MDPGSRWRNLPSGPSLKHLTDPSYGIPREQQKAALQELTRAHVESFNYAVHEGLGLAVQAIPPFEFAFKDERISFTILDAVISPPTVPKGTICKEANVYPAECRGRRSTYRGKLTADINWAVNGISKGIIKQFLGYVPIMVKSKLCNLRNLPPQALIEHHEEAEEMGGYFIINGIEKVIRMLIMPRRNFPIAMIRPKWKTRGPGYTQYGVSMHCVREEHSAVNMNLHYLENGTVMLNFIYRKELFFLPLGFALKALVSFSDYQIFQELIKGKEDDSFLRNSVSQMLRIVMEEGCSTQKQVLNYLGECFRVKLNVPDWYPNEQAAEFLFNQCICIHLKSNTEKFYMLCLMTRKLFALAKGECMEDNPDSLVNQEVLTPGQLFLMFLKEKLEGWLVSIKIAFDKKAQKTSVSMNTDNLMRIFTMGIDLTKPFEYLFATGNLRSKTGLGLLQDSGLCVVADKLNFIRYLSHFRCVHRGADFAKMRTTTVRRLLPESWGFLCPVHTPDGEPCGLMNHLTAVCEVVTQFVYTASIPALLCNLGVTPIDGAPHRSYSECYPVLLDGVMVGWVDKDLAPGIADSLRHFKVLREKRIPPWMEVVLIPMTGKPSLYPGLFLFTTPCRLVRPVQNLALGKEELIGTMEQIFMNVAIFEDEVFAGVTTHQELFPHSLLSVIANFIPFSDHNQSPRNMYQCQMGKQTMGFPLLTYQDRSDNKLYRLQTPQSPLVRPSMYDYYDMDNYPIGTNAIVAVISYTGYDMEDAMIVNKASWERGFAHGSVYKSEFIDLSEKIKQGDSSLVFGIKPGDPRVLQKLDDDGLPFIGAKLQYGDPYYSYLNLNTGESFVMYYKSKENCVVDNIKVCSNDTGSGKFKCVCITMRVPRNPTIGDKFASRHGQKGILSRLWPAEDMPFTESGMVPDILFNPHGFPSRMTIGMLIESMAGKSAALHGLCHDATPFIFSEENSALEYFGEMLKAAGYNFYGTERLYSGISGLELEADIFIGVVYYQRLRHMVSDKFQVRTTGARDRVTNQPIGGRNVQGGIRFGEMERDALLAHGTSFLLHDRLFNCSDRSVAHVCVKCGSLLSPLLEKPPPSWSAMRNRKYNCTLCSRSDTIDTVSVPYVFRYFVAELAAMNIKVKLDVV
Chain of UniProt P30101 (P30101 whole entry, looked up): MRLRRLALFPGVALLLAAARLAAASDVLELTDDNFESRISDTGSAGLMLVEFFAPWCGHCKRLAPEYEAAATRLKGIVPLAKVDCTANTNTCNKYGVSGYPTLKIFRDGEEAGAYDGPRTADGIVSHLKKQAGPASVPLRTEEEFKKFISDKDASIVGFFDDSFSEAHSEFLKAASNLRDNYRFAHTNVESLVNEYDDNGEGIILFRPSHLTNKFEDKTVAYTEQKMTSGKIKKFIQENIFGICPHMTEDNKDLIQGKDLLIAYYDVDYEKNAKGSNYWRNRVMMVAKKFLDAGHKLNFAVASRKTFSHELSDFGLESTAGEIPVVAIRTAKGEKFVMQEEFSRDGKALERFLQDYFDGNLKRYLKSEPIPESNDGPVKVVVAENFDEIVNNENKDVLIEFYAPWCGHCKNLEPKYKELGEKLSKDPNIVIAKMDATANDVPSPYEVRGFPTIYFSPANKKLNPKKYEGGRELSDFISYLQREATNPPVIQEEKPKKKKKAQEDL
Chain of UniProt Q00722 (Q00722 whole entry, looked up): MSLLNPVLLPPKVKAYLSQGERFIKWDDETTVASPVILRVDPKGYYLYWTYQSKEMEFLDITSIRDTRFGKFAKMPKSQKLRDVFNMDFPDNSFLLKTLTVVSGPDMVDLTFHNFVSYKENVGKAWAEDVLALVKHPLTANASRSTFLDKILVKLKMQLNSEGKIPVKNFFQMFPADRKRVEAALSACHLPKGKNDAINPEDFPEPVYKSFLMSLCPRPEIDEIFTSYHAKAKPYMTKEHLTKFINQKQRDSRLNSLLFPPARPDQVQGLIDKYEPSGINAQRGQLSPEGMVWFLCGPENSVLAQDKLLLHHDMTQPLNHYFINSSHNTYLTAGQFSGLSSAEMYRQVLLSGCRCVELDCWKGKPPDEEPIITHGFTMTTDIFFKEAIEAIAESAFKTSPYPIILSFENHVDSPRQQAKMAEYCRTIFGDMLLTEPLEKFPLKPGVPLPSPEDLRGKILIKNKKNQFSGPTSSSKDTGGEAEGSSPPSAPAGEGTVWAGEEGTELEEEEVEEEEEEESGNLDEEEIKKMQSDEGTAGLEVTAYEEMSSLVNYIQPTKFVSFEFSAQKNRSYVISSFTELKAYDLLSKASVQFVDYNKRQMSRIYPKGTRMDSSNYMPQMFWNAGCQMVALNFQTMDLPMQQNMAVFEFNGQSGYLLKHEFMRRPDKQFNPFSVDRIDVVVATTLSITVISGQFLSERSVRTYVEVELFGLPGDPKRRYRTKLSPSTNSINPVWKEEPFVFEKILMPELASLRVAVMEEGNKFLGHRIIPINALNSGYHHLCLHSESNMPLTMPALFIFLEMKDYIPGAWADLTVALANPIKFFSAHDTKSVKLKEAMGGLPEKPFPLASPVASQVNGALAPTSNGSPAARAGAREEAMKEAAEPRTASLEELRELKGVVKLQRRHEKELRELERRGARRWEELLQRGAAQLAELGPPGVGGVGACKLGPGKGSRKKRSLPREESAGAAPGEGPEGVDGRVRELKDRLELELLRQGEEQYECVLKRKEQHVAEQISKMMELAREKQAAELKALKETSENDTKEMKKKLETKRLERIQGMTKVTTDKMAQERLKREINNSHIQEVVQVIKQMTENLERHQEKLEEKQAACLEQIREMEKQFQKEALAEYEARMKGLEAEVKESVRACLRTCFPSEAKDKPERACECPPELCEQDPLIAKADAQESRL
Chain of UniProt P28340 (P28340 whole entry, looked up): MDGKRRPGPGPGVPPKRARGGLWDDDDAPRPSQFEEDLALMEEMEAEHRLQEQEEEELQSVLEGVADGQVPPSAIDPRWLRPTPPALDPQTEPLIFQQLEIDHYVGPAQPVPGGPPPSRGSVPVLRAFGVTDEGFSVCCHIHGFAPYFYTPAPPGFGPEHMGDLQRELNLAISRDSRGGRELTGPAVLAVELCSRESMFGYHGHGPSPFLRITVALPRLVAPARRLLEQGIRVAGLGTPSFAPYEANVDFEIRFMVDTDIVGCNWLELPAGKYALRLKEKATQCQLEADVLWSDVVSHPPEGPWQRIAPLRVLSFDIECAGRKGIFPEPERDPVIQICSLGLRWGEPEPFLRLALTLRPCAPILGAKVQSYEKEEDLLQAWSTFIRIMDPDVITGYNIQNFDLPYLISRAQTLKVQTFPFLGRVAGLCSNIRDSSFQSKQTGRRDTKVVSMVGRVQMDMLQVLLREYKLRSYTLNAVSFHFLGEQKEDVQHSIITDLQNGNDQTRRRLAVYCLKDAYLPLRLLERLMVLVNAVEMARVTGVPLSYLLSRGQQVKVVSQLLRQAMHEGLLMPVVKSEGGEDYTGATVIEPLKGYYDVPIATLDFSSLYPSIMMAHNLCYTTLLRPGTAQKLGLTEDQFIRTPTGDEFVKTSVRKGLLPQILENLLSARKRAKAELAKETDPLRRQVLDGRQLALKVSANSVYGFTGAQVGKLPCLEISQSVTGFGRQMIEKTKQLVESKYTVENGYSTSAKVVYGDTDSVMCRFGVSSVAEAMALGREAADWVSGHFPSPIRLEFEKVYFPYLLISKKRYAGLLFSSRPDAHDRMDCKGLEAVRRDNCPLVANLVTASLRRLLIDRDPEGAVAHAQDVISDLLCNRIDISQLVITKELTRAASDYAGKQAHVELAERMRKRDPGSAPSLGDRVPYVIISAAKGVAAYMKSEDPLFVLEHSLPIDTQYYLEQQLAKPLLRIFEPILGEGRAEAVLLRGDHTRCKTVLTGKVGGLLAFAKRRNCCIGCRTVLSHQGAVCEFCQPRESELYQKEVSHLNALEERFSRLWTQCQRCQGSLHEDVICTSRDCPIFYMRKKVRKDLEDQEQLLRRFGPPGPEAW

Target	probe-labelled cysteine peptide fold change (10 µM)	probe-labelled cysteine peptide fold change (50 µM)
PCM1_Q15154_1779_SDISDQEEDEESEGCPVSINLSK (UniProt Q15154)	-0.382	-0.502
PCK2_Q16822_417_PWKPGDKEPCAHPNSR (UniProt Q16822)	-0.16	-0.314
PMM2_O15305_9_AAPGPALCLFDVDGTLTAPR (UniProt O15305)	0.0884	-0.0452
PPP2R5D_Q14738_17_CTAKPSSSGK (UniProt Q14738)	-0.207	-1.72
PRDX6_P30041_91_DINAYNCEEPTEK (UniProt P30041)	-0.219	0.0432
PLIN3_O60664_39_VASMPLISSTCDMVSAAYASTK (UniProt O60664)	0.0565	-0.288
PLXNB2_O15031_112_LVECGSLFK (UniProt O15031)	-0.122	-0.138
POLR3E_Q9NVU0_676_LTQECGEDLSK (UniProt Q9NVU0)	0.0254	-0.0154
PPCDC_Q96CD2_166_AFGYVEIPCVAK (UniProt Q96CD2)	-0.138	-0.136
PDS5B_Q9NTI5_1069_LYTVCDVAMNIIMSK (UniProt Q9NTI5)	-0.0609	-0.136
PLA2G15_Q8NCC3_371_SALQCQAWQSR (UniProt Q8NCC3)	0.0131	0.0452
PHAX_Q9H814_51_AFQNTATACAPVSHYR (UniProt Q9H814)	-0.182	-0.271
PEPD_P12955_230_EYELESLFEHYCYSR (UniProt P12955)	0.0749	-0.0205
PLCB3_Q01970_193_VETALESCGLK (UniProt Q01970)	0.0155	-0.181
PML_P29590_57+60_CQQCQAEAK (UniProt P29590)	-0.0779	-0.261
PFN1_P07737_128_CYEMASHLRR (UniProt P07737)	-0.403	-0.731
PCIF1_Q9H4Z3_29_EEASLLSHSPGTSNQSQPCSPK (UniProt Q9H4Z3)	-0.369	-0.693
PPM1F_P49593_315_IEALGGFVSHMDCWR (UniProt P49593)	0.0343	0.104
PPP4C_P60510_52_VDSPVTVCGDIHGQFYDLK (UniProt P60510)	0.0516	0.0898

Target	probe-labelled cysteine peptide fold change (10 µM)	probe-labelled cysteine peptide fold change (50 µM)
PDHA1_P08559_181_NFYGGNGIVGAQVPLGAGIALACK (UniProt P08559)	0.471	0.393
POLR1B_Q9H9Y6_103_EANVYPAECR (UniProt Q9H9Y6)	-0.197	0.15
PPIG_Q13427_33_VVFELFSDVCPK (UniProt Q13427)	0.155	-0.397
PREP_P48147_352_SNFLVLCYLHDVK (UniProt P48147)	0.222	0.265
PHF23_Q9BUL5-4_5_MPGDCR (UniProt Q9BUL5)	0.399	1.2
PGGT1B_P53609_147_EACLAGLR (UniProt P53609)	0.157	-0.0399
PPP4R3B_Q5MIZ7_182_LLQLFQACENLENTEGLHHLYEIIR (UniProt Q5MIZ7)	0.229	0.561
PHGDH_O43175_48_EELIAELQDCEGLIVR (UniProt O43175)	-0.0456	0.0884
PLCB2_Q00722_296_GQLSPEGMVWFLCGPENSVLAQDK (UniProt Q00722)	0.119	0.27
PLAUR_Q03405_293_SGCNHPDLDVQYR (UniProt Q03405)	-0.304	-0.418
PIAS2_O75928_346_VSLMCPLGK (UniProt O75928)	0.0643	-0.43
PIK3CD_O00329_718_ELMHLCMR (UniProt O00329)	0.197	-0.0661
PDIA3_P30101_60_ISDTGSAGLMLVEFFAPWCGHCK (UniProt P30101)	-0.259	-0.597
PPIB_P23284_202_DVIIADCGKIEVEKPFAIAK (UniProt P23284)	-0.622	-1.16
POLD1_P28340_193_ELTGPAVLAVELCSR (UniProt P28340)	0.0865	0.273
POLRMT_O00411_591_LLAEMLVQATQMPCSLDKPHR (UniProt O00411)	-0.45	-1.55
PPP4C_P60510_130_QITQVYGFYDECLR<|>PPP2CB_P62714_133_QITQVYGFYDECLR<|>PPP2CA_P67775_133_QITQVYGFYDECLR (UniProt P67775+P62714+P60510)	0.232	0.371
PDCD6IP_Q8WUM4_512_ECYQSHR (UniProt Q8WUM4)	-0.437	-1.11
PLCB3_Q01970_193_RVETALESCGLK (UniProt Q01970)	-0.0214	0.112
